About 7,500 (2.1%) of roughly 360,000 compounds were called active. Inconclusive results, whose numbers are uncertain, are shown with a selection of clear calls. Calls follow the shape of the dose curve; as a rule, active = well fitted cell-killing curve with a large enough effect; inconclusive = small, poorly fitted or top-dose-only effect, or effect the other way, or another doubt; inactive = no such curve, though single readings can be large or run the other way. Potencies of inconclusive entries are left out as doubtful fits.
Test: qHTS for induction of synthetic lethality in tumor cells producing 2HG: qHTS for the HT-1080-IDH1KD cell line;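 as to activity, negative = toxicity: 0% = DMSO wells and -100% = cell-free medium wells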
Settings: HT-1080 IDH1 knockdown viability, ATP luminescence, 48 h; activity, negative = toxicity: at 46.1 µM (top of the series) unless noted
Procedure, shortened: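 IDH1KD HT-1080 cells, 750/well, RPMI + 5% FBS; compound pinned after 2 h settling; 48 h, 37 °C; CellTiter-Glo luminescence; % activity normalised to DMSO and no-cell wells; curves fitted, classed by r2 and efficacy.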
Potency is read from the fitted curve at half-maximal effect; tags tell the direction and shape of the fitted curve.

SMILES | Potency | activity, negative = toxicity
COC(=O)c1cc(S(=O)(=O)N2c3ccccc3CC2C)c[nH]1 (stereo not drawn) | inconclusive [cytotoxic, single point] | 
COc1ccc(-c2cc(C)no2)cc1S(=O)(=O)N(C)c1ccc(C)cc1 | inconclusive [cytotoxic, partial curve] | 
O=C(CN1CCOCC1)N/N=C/c1c(O)ccc2ccccc12 | inconclusive [cytotoxic, single point] | 
CC1CC(C)CN(C(=O)c2ccc(NC(=O)c3ccc(=O)[nH]c3)cc2)C1 (stereo not drawn) | inactive | 
CCOC(=O)C(C)(C)N(Cc1ccccc1C)S(=O)(=O)c1ccc(Cl)c([N+](=O)[O-])c1 | inconclusive [cytotoxic, single point] | 
CC(C)Cn1c(N)c(C(=O)COC(=O)c2cc(C(F)(F)F)nc3ccccc23)c(=O)n(C)c1=O | inactive | 
Cc1ccc(-c2nc(SC(C)C(=O)N3CCCC3)n[nH]2)cc1 (stereo not drawn) | inactive | 
COC(=O)c1cc(NC(=O)c2cc(-c3ccc(OC)cc3)oc2C(F)(F)F)ccc1N1CCOCC1 | inconclusive [cytotoxic, single point] | 
Cc1csc(NC(=O)c2cn3ccccc3n2)n1 | inconclusive [cytotoxic, partial curve] | 
Cc1cccc(C)c1-n1nnnc1-c1nc2ccccc2[nH]c1=O | inconclusive [cytotoxic, single point] | 
O=C1/C(=C\c2cccnc2)CCc2ccccc21 | inconclusive [cytotoxic, single point] | 
COc1cc(C(=O)Nc2nc(-c3ccc(Cl)cc3)c(C)s2)ccc1OCC(=O)Nc1ccc(F)cc1 | inconclusive [cytotoxic, partial curve] | 
O=C(/C=C/c1ccco1)Nc1ccc2c(c1)OCO2 | active: 20.6 µM | 
COCC(C)NC(=O)CCS(=O)(=O)c1nc(-c2ccc(OC)cc2)cc(C(F)(F)F)n1 (stereo not drawn) | active: 23.1 µM | 
CCCS(=O)(=O)N1CCC(C(=O)NCCCN2CCC(Cc3ccccc3)CC2)CC1 | inactive | 
CCCCOc1ccc(OC(=O)c2cccnc2)cc1 |  | inconclusive: -33.6% [cytotoxic]
Cc1cc(C(=O)COC(=O)C2=COCCO2)c(C)n1-c1cccc(F)c1 | inactive | 
COc1ccc(CNc2nc3c(c(=O)n(Cc4ccc(Br)cc4)c(=O)n3C)n2C)cc1 | inconclusive [cytotoxic, single point] | 
Cc1ccc(-c2n[nH]c(=O)c3ccccc23)cc1S(=O)(=O)Nc1ccc(F)cc1 | inconclusive [cytotoxic, single point] | 
O=C(Nc1ccccc1)C1=C[C@H](c2ccc3c(c2)OCO3)C[C@H](OCCCCO)O1 | inactive | 
Cc1ccc2nc(NNC(=O)c3ccc(S(=O)(=O)N4CCc5ccccc5C4)cc3)sc2c1 | active: 4.61 µM | 
O=C1/C(=C/c2cccnc2)SC(=S)N1Cc1ccco1 | inconclusive [cytotoxic, partial curve] | 
COc1ccccc1NC1=C(N2CCCCC2)C(=O)c2ccccc2C1=O | inconclusive [cytotoxic, partial curve] | 

SMILES | Potency | activity, negative = toxicity
CC(=O)N1c2ccc3ccccc3c2C(C)CC12CCCCC2 (stereo not drawn) | inconclusive [cytotoxic, single point] | 
COc1ccc([C@@H]2Sc3ccccc3NC(=O)[C@@H]2O)cc1 | inconclusive [cytotoxic, single point] | 
Cn1c(SCC(=O)c2cc(Cl)c(Cl)s2)nnc1-c1ccco1 | inactive | 
COc1ccc(Nc2cc(C)c3c(O)cccc3n2)cc1 | inconclusive [cytotoxic, single point] | 
CC(C)(C)c1ccc(S(=O)(=O)NC(=O)C2(C)CCN2C(=O)C2CCCCC2)cc1 (stereo not drawn) | inconclusive [rising, single point] | 
C[C@@H]1CN([C@@H](C)CO)C(=O)CCCn2nncc2CO[C@@H]1CN(C)C(=O)OCc1ccccc1 | inactive | 
CCOC(=O)CSc1nc2cc(C)ccc2cc1C#N | inactive | 
COc1cc(NC(=O)N2CCc3nc(NCc4cccc(Oc5ccccc5)c4)ncc3C2)cc(OC)c1OC | inconclusive [cytotoxic, partial curve, poor fit] | 
O=C(/C=C/Sc1ccccc1)c1ccc(Cl)cc1 | active: 7.94 µM | 
Cc1ccc(-c2nc(C)sc2CC(=O)OCC(=O)Nc2ccc(F)c(Cl)c2)cc1 | inactive | 
O=[N+]([O-])c1ccccc1Nc1c2ccccc2nc2ccccc12 | inconclusive [cytotoxic, partial curve, poor fit] | 
Cc1ccccc1S(=O)(=O)Nc1nc2ccccc2nc1Cl | inactive | 
Cc1ccc2c(c1)N(C)/C(=C/c1cccc[n+]1C)S2 | active: 10.3 µM | 
Cc1ccc(C)c(N2CCN(C(=O)C3CCN(c4nc(C)cc(C)n4)CC3)CC2)c1 | inconclusive [cytotoxic, single point] | 
O=C(CCS(=O)(=O)c1ccc(Br)cc1)N1CCN(Cc2ccccc2)CC1 | inactive | 
COCc1cc(CN2CCN(C)CC2)c(O)c2ncccc12 | inconclusive [cytotoxic, single point] | 
O=C(NCCc1ccco1)c1cc(COc2cccc(C(F)(F)F)c2)on1 | inconclusive [cytotoxic, single point] | 
CC1(C(=O)NCc2ccco2)Cc2c(-c3cccc(C(F)(F)F)c3)ccnc2O1 (stereo not drawn) | inconclusive [cytotoxic, full curve] | 
O=C(N/N=C/C(Cl)=C/c1ccccc1)c1ccc2c(c1)OCO2 | inconclusive [cytotoxic, single point] | 
O=C(Cn1cnc2ccccc2c1=O)N1CCN(Cc2ccc3c(c2)OCO3)CC1 | inactive | 
CC1CCCCN1CCCNC(=O)CN1C(=O)CSc2ccc(S(=O)(=O)N3CCOCC3)cc21 (stereo not drawn) | inconclusive [rising, single point] | 
Cc1cc(C)c(C)c(S(=O)(=O)NC(C(=O)O)C(C)C)c1C (stereo not drawn) | inactive | 
Cc1ccc(S(=O)(=O)Nc2ccc(O)c3ccccc23)c(C)c1 | inconclusive [cytotoxic, single point] | 

SMILES | Potency | activity, negative = toxicity
COc1ccccc1[C@]1(C)ON(c2ccccc2C(F)(F)F)C1=O | inconclusive [cytotoxic, single point] | 
O=C1N[C@@H](Cc2ccccc2)COC(=O)[C@H](Cc2ccc(F)cc2)CC/C=C/C[C@H]1CC(=O)N(CCO)Cc1ccccc1 | inconclusive [cytotoxic, single point] | 
CCc1sc(C(=O)NCc2cc(C)n(C)n2)cc1Br | active: 15.8 µM | 
CC(C)NC(=O)CN1CCN(Cc2nc(C(c3ccccc3)c3ccccc3)no2)CC1 | inactive | 
CCSc1ccc2nnc(-c3ccc(F)cc3)n2n1 | inconclusive [cytotoxic, single point] | 
Cc1ccc(NC(=O)c2ccc(NCCCN3CCC(C)CC3)c([N+](=O)[O-])c2)cc1F | inconclusive [cytotoxic, partial curve] | 
CC1=C(C(=O)N2CCCCCC2)CC(CC(=O)NCc2cccc3ccccc23)C(=O)N1CCC1=CCCCC1 (stereo not drawn) | inconclusive [cytotoxic, single point] | 
CCCCC(=O)Nc1ccc(C(=O)OC2CCCCC2)cc1 | inconclusive [cytotoxic, single point] | 
COC(=O)c1ccc(Cl)c(NC(=O)NC23CC4CC(CC(C4)C2)C3)c1 | inactive | 
COc1cc(C(O)c2nc(-c3ccc(N(C)C)cc3)cs2)ccc1F (stereo not drawn) | inconclusive [cytotoxic, partial curve] | 
CCOc1ccc(-c2cc(C(=O)NCCCN3CCCC3)c3ccccc3n2)cc1 | inconclusive [cytotoxic, single point] | 
Cc1ccc(-c2nnn(CC(=O)N(Cc3cccs3)C(C(=O)NC3CCCC3)c3ccncc3)n2)cc1 (stereo not drawn) | inconclusive [cytotoxic, partial curve] | 
CCCCN1CC(COCc2ccccc2)Oc2cccc(N3CCCC3)c2S1(=O)=O (stereo not drawn) | inactive | 
NC(=O)CC(NC(=O)Cc1cccc2ccccc12)c1ccc(N2CCCCCCC2)c([N+](=O)[O-])c1 (stereo not drawn) | inconclusive [cytotoxic, single point] | 
CC(C)COCC(CN(Cc1ccccc1)c1ccccc1)N1CCCC1 (stereo not drawn) | active: 15.8 µM | 
Cc1cc(C)cc(NC(=O)CSc2cc(C(=O)c3nccn3C)c3ccccc3n2)c1 | inconclusive [cytotoxic, full curve] | 
N=c1n(CCN2CCOCC2)c2ccccc2n1CC(=O)c1ccc(Cl)c(Cl)c1 | inconclusive [cytotoxic, single point] | 
NC(=O)CC(NC(=O)Cc1cccc2ccccc12)c1ccc(NCCCN2CCCC2=O)c([N+](=O)[O-])c1 (stereo not drawn) | inactive | 
CC1(C(=O)NS(=O)(=O)c2ccc3ccccc3c2)CCN1C(=O)Cc1ccc(Cl)cc1Cl (stereo not drawn) | inactive | 
CC1CC2C(C(O)CC3(C)C2CCC3(O)C(=O)CO)C2(C)C=CC(=O)C=C12 (stereo not drawn) | inconclusive [rising, partial curve] | 
O=C1N[C@@H](c2ccccc2)COC(=O)[C@@H](Cc2ccc(F)cc2)CC/C=C/C[C@H]1CC(=O)N(CCO)Cc1ccccc1 | inconclusive [cytotoxic, single point] | 
CC(C)(C)OC(=O)[C@H](Cc1ccccc1)NC(=O)c1[nH]cnc1C(=O)Nc1cccc(Cl)c1 | inconclusive [cytotoxic, single point] | 

Reference: PubChem BioAssay AID686971 (National Center for Advancing Translational Sciences (NCATS), 2013)
